# Sequences with one replicate were seen in a single cluster, so their values are uncertain.
# System: ATP
# Assay: switch fluorescence ratio, 500 uM ATP over buffer (Cy3 cluster intensity, sum of 5 cycles each) (fold (ratio)); higher = stronger signal-on switching upon ATP binding; sequences stand for … in TCGTCGGCAGCGTCAGATGTGTATAAGAGACAGTTTTTTTTTTTTTTTTTTTTTTTTT…TC
# Conditions: aptamer strand: ATP DNA aptamer (quencher-CACCTGGGGGAGTATTGCGGAGGAAGG + anchor), 100 nM annealed; ATP concentration: 500 uM; one replicate
# How it was run: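 Five buffer/ATP imaging cycles were run on Cy3-labelled switching-strand clusters on a modified Illumina MiSeq flow-cell, with NaOH stripping and re-annealing between cycles. In each cycle, clusters annealed to 100 nM quencher-labelled ATP aptamer were imaged in selection buffer, then after 15 min with 500 uM ATP at 22 °C. Per cluster, the fluorescence ratio is summed target-cycle over summed buffer-cycle Cy3 intensity, averaged per switch-domain sequence. Only clusters within 100-1000 RFU were kept.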
# 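Note: ATP exposure 15 min at 22 °C before imaging.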
row,Sequence,switch fluorescence ratio
1,GCCTCAGTGG,1.03
2,GCCTCGGCTA,1.15
3,GCCTGAG,1.13
4,GCCTGATGAG,0.998
5,GCCTGATGTT,0.942
6,GCCTGGATGT,0.962
7,GCCTGGGGCA,0.995
8,GCCTGGGTAA,0.999
9,GCCTGGTAGA,0.996
10,GCCTTACCAG,1.1
11,GCCTTATTCA,0.977
12,GCCTTCCCGT,2.26
13,GCCTTGGGTT,1
14,GCCTTTACAT,0.98
15,GCCTTTATCT,0.945
16,GCCTTTCCCG,2.31
17,GCCTTTCGAG,1.38
18,GCCTTTCTCC,3.65
19,GCCTTTTAAT,1.02
20,GCCTTTTGAG,1.05
21,GCGAAAGAGC,0.997
22,GCGAAAGGTA,1.03
23,GCGAAATGCG,1.02
24,GCGAACGCCA,1.26
25,GCGAAGAGG,0.953

row,Sequence,switch fluorescence ratio
1,GCGAAGGGTT,0.976
2,GCGACCGGAA,2.58
3,GCGACCTTCA,2.08
4,GCGACGTGTC,1.07
5,GCGACGTTAG,0.963
6,GCGACTTTCT,0.971
7,GCGACTTTTA,0.975
8,GCGAGAAAAA,0.932
9,GCGAGAACTT,0.982
10,GCGAGAGGTA,1.03
11,GCGAGGTAGC,0.97
12,GCGAGGTCAT,0.992
13,GCGAGTGGTG,1.01
14,GCGAGTTTCC,1.03
15,GCGATAAAGA,0.979
16,GCGATATACT,1.66
17,GCGATATATT,1.04
18,GCGATCCGAC,1.49
19,GCGATCCTAG,0.986
20,GCGATCGGGT,1
21,GCGATGGAGC,0.979
22,GCGATGGCAA,1.39
23,GCGATGGCGT,1.02
24,GCGATTCAGT,1.01
25,GCGATTCGGA,0.985

row,Sequence,switch fluorescence ratio
1,GCGATTGCAG,0.993
2,GCGATTGTAG,1.02
3,GCGCACAAGA,0.991
4,GCGCACCGCC,1.01
5,GCGCATCTCT,1.13
6,GCGCATGTTG,0.987
7,GCGCCTGACC,1.24
8,GCGCGAAATG,1
9,GCGCGAACAG,1.02
10,GCGCGAGAGT,1.1
11,GCGCGCACAG,0.981
12,GCGCGCCTAT,1.01
13,GCGCGCCTGG,1
14,GCGCTAAGAA,1.02
15,GCGCTCGGGA,1.01
16,GCGCTGGCCC,1.02
17,GCGCTTATCG,1.02
18,GCGCTTGTTT,1.06
19,GCGCTTTTCA,1.03
20,GCGGAAGTAA,1.02
21,GCGGAATTAG,1.01
22,GCGGAGCCGA,1.03
23,GCGGAGGGTT,1.07
24,GCGGAGGTAG,0.94
25,GCGGCAACAT,0.943

row,Sequence,switch fluorescence ratio
1,GCGGCAAGAA,1.06
2,GCGGCAATGT,1.16
3,GCGGCGGCGA,1
4,GCGGCGTGGG,1.01
5,GCGGCTGGAG,1
6,GCGGGAAAAG,0.928
7,GCGGGAACAG,0.964
8,GCGGGCGGGT,0.998
9,GCGGGCTGTG,0.961
10,GCGGGGAAAG,1.02
11,GCGGGGGCCG,0.959
12,GCGGGTTA,0.945
13,GCGGTAAATT,1.05
14,GCGGTACCTC,1.11
15,GCGGTCATAA,0.973
16,GCGGTCTAGC,0.968
17,GCGGTTCGCT,1
18,GCGGTTGGCC,1.06
19,GCGTAACTAA,0.987
20,GCGTAAGATT,0.965
21,GCGTACCCCC,2.04
22,GCGTATAT,1.32
23,GCGTATCGGG,1.02
24,GCGTCAGTGG,1.01
25,GCGTCCAGGC,0.974

row,Sequence,switch fluorescence ratio
1,GCGTCCGTTT,0.979
2,GCGTCCTTCT,1.02
3,GCGTCTAAAT,0.964
4,GCGTGACCCT,1.07
5,GCGTGCAAAC,1.01
6,GCGTGCACTT,1.03
7,GCGTGCATAT,0.99
8,GCGTGGACAC,1.05
9,GCGTGTTGCA,1.05
10,GCGTTACAGG,1.02
11,GCGTTAGGTG,1.09
12,GCGTTAGTTC,0.999
13,GCGTTATCGT,0.993
14,GCGTTATGGC,1.03
15,GCGTTATGTA,0.98
16,GCGTTATTCG,1
17,GCGTTCAAAG,0.99
18,GCGTTCCGA,1.22
19,GCGTTCTTTA,0.986
20,GCGTTGCGTA,1.01
21,GCGTTTCGAA,0.945
22,GCGTTTCTAA,0.977
23,GCGTTTGGTG,0.979
24,GCGTTTGT,0.976
25,GCTAAAATCG,0.972

row,Sequence,switch fluorescence ratio
1,GCTAAATTCA,1
2,GCTAACGCTG,1.07
3,GCTAACGTGT,0.985
4,GCTAAGATTT,1.03
5,GCTAATGCAA,0.98
6,GCTAATGCAC,1.02
7,GCTAATGTCT,1.02
8,GCTACACCGA,1.06
9,GCTACAGGCA,1.03
10,GCTACCAGTG,1.26
11,GCTACCCGGT,1.14
12,GCTACCGGTA,1.04
13,GCTACTGCCT,0.989
14,GCTAGAACGC,0.975
15,GCTAGAGG,0.981
16,GCTAGAGTCG,1
17,GCTAGATTAC,1.08
18,GCTAGCCAGC,1.04
19,GCTAGCCTGC,1.02
20,GCTAGCGAAC,1.07
21,GCTAGGAATA,0.999
22,GCTAGTATCC,1
23,GCTAGTCCAC,1.03
24,GCTAGTCGTG,0.941
25,GCTAGTTTAT,1.02

row,Sequence,switch fluorescence ratio
1,GCTATAACTA,0.989
2,GCTATAAGCG,1.03
3,GCTATAGCCG,0.976
4,GCTATCCCCT,1.09
5,GCTATCGGCA,1.02
6,GCTATCGTCT,1.01
7,GCTATGCCAG,0.991
8,GCTATGCTG,1.22
9,GCTATTAACA,1.06
10,GCTATTAGGT,1.02
11,GCTATTGCTG,0.97
12,GCTATTGGAG,0.94
13,GCTATTGTCA,1.05
14,GCTCAGTACC,1.09
15,GCTCAGTGTG,1.07
16,GCTCATGGGT,1.01
17,GCTCATTGGA,1.01
18,GCTCATTTCA,0.933
19,GCTCATTTGG,0.945
20,GCTCCAAAAC,1.46
21,GCTCCGCGGG,5.35
22,GCTCCTCCCG,1.76
23,GCTCCTGGAC,1.76
24,GCTCCTTGTT,1.04
25,GCTCGAACCC,1.08

row,Sequence,switch fluorescence ratio
1,GCTCGAGATA,1.08
2,GCTCGCCTGC,1.02
3,GCTCGCGCGG,1.07
4,GCTCGGCCGA,0.949
5,GCTCGTAGAG,1
6,GCTCGTAGGA,1.02
7,GCTCTAGCTG,1.03
8,GCTCTGAAGG,1.04
9,GCTCTGAGCA,0.96
10,GCTCTGCAAG,2.1
11,GCTCTGCTCG,1
12,GCTCTGTATG,1.02
13,GCTCTTGCAC,1.03
14,GCTGACAATA,1.03
15,GCTGACAGGA,1
16,GCTGACCATT,1.03
17,GCTGAGAAGA,0.973
18,GCTGAGCATT,1.02
19,GCTGAGCTTT,1.02
20,GCTGCCAGTA,1.04
21,GCTGCTACTG,1.08
22,GCTGCTGACC,1.01
23,GCTGGAATTT,0.961
24,GCTGGACTGG,1.04
25,GCTGGCCACG,1.03
